Results taken from PubChem BioAssay (Tox21).
The inconclusive results got no clear call from the source; some entries with a clear call stand among them for comparison. No potency is given beside an inconclusive call; the fits are too rough. More than one record can exist for a structure, and the calls need not agree. Calls of active or inactive are those of the source. Calls follow the shape of the dose curve; as a rule, active = well fitted cell-killing curve with a large enough effect in the repeat runs; inconclusive = weak or mixed curves, or effect the other way; inactive = no such curve, though single readings can be large or run the other way.

Test: qHTS assay to identify small molecule antagonists of the sonic hedgehog signaling (Shh) pathway - cell viability counter screen (AID 1259367); also: nearly all actives have a fitted effect of over 55% in size
Conditions: NIH/3T3 Gli1-Luc viability, CellTiter-Fluor, 24 h; series mostly up to 92.4 µM
Method in brief: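 Cells: 3T3 Gli1-Luc, 2,000/well, 4 hr pre-incubation. Compounds in DMSO, then conditioned medium. Incubation 24 hr, 37C, 5% CO2. CellTiter-Fluor at 23 hr, 1 hr, fluorescence.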
Potency is read from the fitted curve at half-maximal effect; tags tell the direction and shape of the fitted curve.

**Q.** Which Potency does the source give for Cc1c(C)n(CCN(C)C)c2ccc(C(=O)OCCN(C)C)cc12 here?
**A.** inactive

**Q.** Which Potency does the source give for Nc1ccc(Cl)c([N+](=O)[O-])c1 here?
**A.** inconclusive [cytotoxic, single point]

**Q.** With CCCCC(CC)C(=O)OCCOCCOCCOCCOC(=O)C(CC)CCCC (stereo not drawn) as the compound, how does the Potency read?
**A.** inactive

**Q.** For CCCC(C)C, which Potency is on record?
**A.** inactive

**Q.** With O=C1c2cccc3c2[C@H](CCC3)CN1[C@@H]1CN2CCC1CC2 as the compound, how does the Potency read?
**A.** inactive

**Q.** Which Potency does the source give for CCOC(=O)CC(=O)C(=O)OCC here?
**A.** inactive

**Q.** For Cc1c(N)cccc1[N+](=O)[O-], which Potency is on record?
**A.** inactive

**Q.** With CC(C)(C)C(=O)OCOP(=O)(COCCn1cnc2c(N)ncnc21)OCOC(=O)C(C)(C)C as the compound, how does the Potency read?
**A.** active: 9.44 µM

**Q.** For CCCCCCCCSCc1cc(C)c(O)c(CSCCCCCCCC)c1, which Potency is on record?
**A.** inconclusive [cytotoxic, partial curve]

**Q.** For O=C=NC1CCC(CC2CCC(N=C=O)CC2)CC1 (stereo not drawn), which Potency is on record?
**A.** inconclusive [cytotoxic, partial curve]

**Q.** With Cc1ccccc1C(=O)Nc1ccc(C(=O)N2CCCC(N(C)C)c3ccccc32)cc1 (stereo not drawn) as the compound, how does the Potency read?
**A.** inconclusive [cytotoxic, full curve]

**Q.** With CCCSc1ccc2nc(NC(=O)OC)[nH]c2c1 as the compound, how does the Potency read?
**A.** inconclusive [cytotoxic, partial curve]

**Q.** With Cc1cccc(C)c1[N+](=O)[O-] as the compound, how does the Potency read?
**A.** active: 48.6 µM
